This is one part of the list.
Target: T1, OsWOX13 (Oryza sativa, UniProt Q5QMM3 1-267)
T1 sequence: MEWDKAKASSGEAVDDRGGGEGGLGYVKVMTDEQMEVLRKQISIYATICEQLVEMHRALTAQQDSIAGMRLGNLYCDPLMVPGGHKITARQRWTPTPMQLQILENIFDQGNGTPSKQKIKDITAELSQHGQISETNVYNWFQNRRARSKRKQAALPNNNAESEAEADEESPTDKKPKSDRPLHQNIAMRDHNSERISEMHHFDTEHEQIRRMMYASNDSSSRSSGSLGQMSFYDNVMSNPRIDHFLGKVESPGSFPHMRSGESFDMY
Experiment: protein-binding microarray (RPBM); PBS, 2% BSA, 51.3 ng/ul salmon testes DNA, 50 uM zinc acetate, 200 nM TF, 25 C, 1 h; high values mean tight binding
Settings: protein: recombinant; tags: N-terminal polyhistidine and DsRed monomer fusion (pET32a); label: CyDye5-dUTP incorporated in the synthesized complementary strand; 3' TTTTT single-stranded linker to array surface; dsDNA, one strand shown
How it was run: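 Binding signal here means per-feature fluorescence intensity in arbitrary units. The values were read on an Axon 4000B scanner after a custom Agilent array, double-stranded by primer extension with Cy5-dUTP, was incubated with 200 nM protein at 25 °C for 1 h in PBS with 2% BSA, salmon testes DNA and 50 µM zinc acetate, then washed. The proteins were transcription factors with an N-terminal polyhistidine tag and DsRed, expressed in E. coli BL21-CodonPlus and purified on Ni–NTA.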

Row | Sequence | binding signal
1 | GGGTGATTTGTTGTAATGACGCGTGTGGTGGGGTGTGTGGCGGAGTCACCTAGTGCAG | 45700 fluorescence intensity (a.u.)
2 | ATGTAACTAGTATATAATCATCACTCATCATTATGTATGTCGGAGTCACCTAGTGCAG | 9480 fluorescence intensity (a.u.)
3 | CCAACCAATCAGCTGTGTTTGTTGGTGTCCAGAGCATGTGCGGAGTCACCTAGTGCAG | 10200 fluorescence intensity (a.u.)
4 | AATGACAACAGTAGTCCTAAATTGACCAACTATAATCGAGCGGAGTCACCTAGTGCAG | 4820 fluorescence intensity (a.u.)
5 | TCTTGATTTATTTTAGGACGGGTGGGTAGTTTTCTGCGTTCGGAGTCACCTAGTGCAG | 42900 fluorescence intensity (a.u.)
6 | GTTTTAATTTGATTTTCTACGTGTTGAAATTAACTGCTCACGGAGTCACCTAGTGCAG | 40000 fluorescence intensity (a.u.)
7 | GTTAATAATTACCAAGACTCGTTCTATGTATCTGAGTGAACGGAGTCACCTAGTGCAG | 10300 fluorescence intensity (a.u.)
8 | AATTGGCTTGGCTAATTAATTACTCCATTTGCGAACATGGCGGAGTCACCTAGTGCAG | 4010 fluorescence intensity (a.u.)
9 | TGTTCTTGATTTTGATCCCTTATTACAAGTGACTTTGCCACGGAGTCACCTAGTGCAG | 4420 fluorescence intensity (a.u.)
10 | CTCCAAATTAGAGGATCTCAATCCAGTATATAAACATCCGCGGAGTCACCTAGTGCAG | 4880 fluorescence intensity (a.u.)
11 | ACTTTCAAAACTTAAATTTACCGCTGATAACACCAGAATTCGGAGTCACCTAGTGCAG | 3810 fluorescence intensity (a.u.)
12 | TCAAATCATGATGTAATTAGACTCAAAAGATTAGTTTCGCCGGAGTCACCTAGTGCAG | 42300 fluorescence intensity (a.u.)
13 | GTAGAAACACATAATGGCATCAATTACCATAATATTAACACGGAGTCACCTAGTGCAG | 5500 fluorescence intensity (a.u.)
14 | TAGACTCATTACACCGGTAATCATCTATAAATGGGTCAACCGGAGTCACCTAGTGCAG | 3400 fluorescence intensity (a.u.)
15 | CAAATTGTCCTTACCTGATTTCCTCTGACAAATGTTTAGTCGGAGTCACCTAGTGCAG | 7070 fluorescence intensity (a.u.)
16 | TTTTGTGATAATTTAGTTAAACTACCCGTAGTTTTGTGAACGGAGTCACCTAGTGCAG | 7750 fluorescence intensity (a.u.)
17 | CTGTTTTATTTAATGATTTTGCATAACTTAAACATGCAAACGGAGTCACCTAGTGCAG | 4480 fluorescence intensity (a.u.)
18 | CAAAACAAATTATAGATTCCGCCTGTAGACTACGAGACGACGGAGTCACCTAGTGCAG | 8770 fluorescence intensity (a.u.)
19 | GGAGCATTATTGTTAATTGCACGTCCCAACATTAGTACTACGGAGTCACCTAGTGCAG | 3870 fluorescence intensity (a.u.)
20 | TTGCAAATTATTTACTGAAAATTCTTTATTAAGATGTTAACGGAGTCACCTAGTGCAG | 10500 fluorescence intensity (a.u.)
21 | TGAGCACCAATTAAACCAATCACTGATATACGAGGTTGGTCGGAGTCACCTAGTGCAG | 31500 fluorescence intensity (a.u.)

Row | Sequence | binding signal
22 | ATGATGGAGGGTTGTGATTGGTTGAGTAGTGGAGATAGGTCGGAGTCACCTAGTGCAG | 10500 fluorescence intensity (a.u.)
23 | TTCCCACTCAATTGCGTTACAGTTTTCTCCCACAGATCCACGGAGTCACCTAGTGCAG | 3480 fluorescence intensity (a.u.)
24 | TATTCAATTAAATAATTAAAAGGATTGTAGCAAATCCGGACGGAGTCACCTAGTGCAG | 23600 fluorescence intensity (a.u.)
25 | TGGGCCTAACTAATCCATGATTAGCCTATGTGATGCTACACGGAGTCACCTAGTGCAG | 6160 fluorescence intensity (a.u.)
26 | CAAGCTCCTATTATCAATTATCAAGATAGAATTTTATCGACGGAGTCACCTAGTGCAG | 7900 fluorescence intensity (a.u.)
27 | CATATGATTTATATCTTTTACCTCTACTATTAATAGAGTGCGGAGTCACCTAGTGCAG | 26100 fluorescence intensity (a.u.)
28 | ATTCAAATTCAAATTTGAATCAGATATATAAACTTTTGACCGGAGTCACCTAGTGCAG | 3810 fluorescence intensity (a.u.)
29 | GATGATCCTATATAATTGTGTGAAACAAAATTGAGGTTGTCGGAGTCACCTAGTGCAG | 3920 fluorescence intensity (a.u.)
30 | AATTGGTCCCAATTAATTAATTAACCGCCCAGACGTACAGCGGAGTCACCTAGTGCAG | 26500 fluorescence intensity (a.u.)
31 | ATATTAACTTGATCTATAAATATGTTTATAAATCGACCCACGGAGTCACCTAGTGCAG | 5030 fluorescence intensity (a.u.)
32 | TTTTAAATTTAAAGTTTTGACTTATAAATATAAACATAAACGGAGTCACCTAGTGCAG | 6050 fluorescence intensity (a.u.)
33 | TTAAATTTGGAGTTAAACAGGTCATACTCATGATCAACTACGGAGTCACCTAGTGCAG | 11500 fluorescence intensity (a.u.)
34 | GCTTAATTAATTGATTCAGAAAATAAAATAGTGAAATAACCGGAGTCACCTAGTGCAG | 33400 fluorescence intensity (a.u.)
35 | ATGTGATTTTCACCACATATTTTCCCTAAATAATAATGAGCGGAGTCACCTAGTGCAG | 6900 fluorescence intensity (a.u.)
36 | TATAACAATGGATTTAATGAAATTGATTTAGTGTTATAAGCGGAGTCACCTAGTGCAG | 19600 fluorescence intensity (a.u.)
37 | CACAGATTGGTCTAAGCAAGTACAACCGTGGTACCTAAATCGGAGTCACCTAGTGCAG | 8250 fluorescence intensity (a.u.)
38 | ACGATATCAATTTGATGGTCATGGAACCTGATACCAACCCCGGAGTCACCTAGTGCAG | 3710 fluorescence intensity (a.u.)
39 | ACAATTACACAAATTGCGTGCAAATTATGAGACGGATCTTCGGAGTCACCTAGTGCAG | 11300 fluorescence intensity (a.u.)
40 | GGCAAATCGGTAATTGCCATGTCACAAGAGTGGCAAATAGCGGAGTCACCTAGTGCAG | 12500 fluorescence intensity (a.u.)
41 | CATATGACCGACTAATTTGTGGTAACTTGTTTGTTCCATGCGGAGTCACCTAGTGCAG | 6610 fluorescence intensity (a.u.)
42 | TAAATTAATGATAATTTTCTTTAATACAAATCCGTTGCATCGGAGTCACCTAGTGCAG | 40100 fluorescence intensity (a.u.)

— publication PMC7819943, “Rice protein-binding microarrays: a tool to detect cis-acting elements near promoter regions in rice”
